Here are results for 100 molecules from paper PMC6919601, “Identification of Plasmodium dipeptidyl aminopeptidase allosteric inhibitors by high throughput screening” (PLoS ONE, 2019).

Structures are written as SMILES. About 230 (0.21%) of roughly 110,000 compounds showed an effect of 50% or more. Some of the results follow.
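Further: 30 min substrate incubation versus DMSO and 10 µM JCP410 controls.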

For the assay, the target named is DPAP1 (Plasmodium falciparum, UniProt Q8IIJ9). Briefly: primary screen, percent inhibition; read by cleavage of a fluorogenic dipeptide substrate; higher = more effect of the substance. Further details: species or system P. falciparum D10 trophozoite lysates; single well.
Sequence of DPAP1 (Q8IIJ9 whole entry, looked up): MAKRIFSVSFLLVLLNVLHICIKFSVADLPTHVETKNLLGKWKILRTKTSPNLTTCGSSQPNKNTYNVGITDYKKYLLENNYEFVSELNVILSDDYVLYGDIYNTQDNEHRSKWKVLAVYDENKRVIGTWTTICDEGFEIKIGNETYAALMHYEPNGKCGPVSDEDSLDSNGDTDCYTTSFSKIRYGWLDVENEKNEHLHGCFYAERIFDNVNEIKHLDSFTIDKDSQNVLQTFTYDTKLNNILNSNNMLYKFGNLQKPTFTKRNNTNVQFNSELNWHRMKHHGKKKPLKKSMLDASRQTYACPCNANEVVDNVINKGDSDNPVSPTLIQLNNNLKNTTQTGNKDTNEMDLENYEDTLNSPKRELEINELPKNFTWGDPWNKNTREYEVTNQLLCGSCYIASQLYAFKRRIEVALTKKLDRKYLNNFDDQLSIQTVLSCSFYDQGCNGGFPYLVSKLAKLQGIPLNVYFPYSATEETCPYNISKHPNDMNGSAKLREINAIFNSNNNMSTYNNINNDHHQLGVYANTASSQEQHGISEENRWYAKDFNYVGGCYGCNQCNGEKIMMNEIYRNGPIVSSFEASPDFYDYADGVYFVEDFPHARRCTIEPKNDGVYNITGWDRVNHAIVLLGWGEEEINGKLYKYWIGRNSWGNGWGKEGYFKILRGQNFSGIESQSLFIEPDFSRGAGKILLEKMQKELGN
Take `CCc1ccc(Oc2nc3ccccn3c(=O)c2/C=C(\C#N)C(=O)OC)cc1`: the “% Inhibition @ 10 uM” value was 11%. As to `O=C1CSC(c2ccc(Cl)cc2)N1c1ccccc1` (stereo not shown), the “% Inhibition @ 10 uM” value is recorded as -5.31%. Consider `CCn1ncc(C2=NOC(C(=O)NCC(C)C)C2)c1C` (stereo not shown), for which the “% Inhibition @ 10 uM” value is given as -4.85%. Turning to `CC(=O)N1CCN(Cc2ccc(Br)s2)CC1`, the “% Inhibition @ 10 uM” value was -0.446%. For `CCN(CC)CCN(CC)CCc1ccccc1`, the “% Inhibition @ 10 uM” value amounted to 0.217%. The value for `CCOC(=O)C1=C(C)N=c2s/c(=C\c3ccc(C(C)C)cc3)c(=O)n2C1c1ccccc1` (stereo not shown) was -3.14%. As for `CCC(=O)N1c2ccccc2N=C2CC(c3ccco3)CC(O)=C2C1c1ccc(OC)c(OC)c1` (stereo not shown), the “% Inhibition @ 10 uM” value is given as 2.38%. In the case of `COc1ccc(-n2nc3c(c2NC(=O)C(C)C)CS(=O)(=O)C3)cc1`, the “% Inhibition @ 10 uM” value is recorded as -4.65%. Then `COc1cccc(C(=O)Nc2nc(C)c(C(=O)N(C)C)s2)c1`, with -2.76%; and `COc1cc(CNCCO)cc(Br)c1OCc1cccs1`, with -7.99%. The value for `O=C(Cn1ncc2c(=O)oc3ccccc3c21)NCC1(c2ccccc2)CCCC1` was -1.03%; that for `COc1ccc(C(=O)Nc2ccc(S(=O)(=O)N3CCC(C)CC3)cc2)cc1Br` was 2.42%. For `Cc1ccc(C2CC(C(F)(F)F)n3ncc(C(=O)N(C)Cc4cn(C)nc4C)c3N2)cc1` (stereo not shown), the “% Inhibition @ 10 uM” value is reported as 6.52%.

On to `O=C1CC(c2ccco2)CC(=O)C1=CNCCN1CCN(C(=O)c2ccccc2)CC1` (stereo not shown), for which the “% Inhibition @ 10 uM” value came out at 0.131%. As for `COc1ccc2[nH]cc(CCNc3nn(-c4ccc(F)cc4)nc3C(C)=O)c2c1`, the “% Inhibition @ 10 uM” value is -5.33%. Consider `CC1CCCCN1C(=O)c1cnn(-c2ccccc2)c1-n1cccc1` (stereo not shown), for which the “% Inhibition @ 10 uM” value came to 3.2%. Take `CCCCCCCc1c(C)nn(-c2nnc3c(n2)[nH]c2ccc(Br)cc23)c1O`: the “% Inhibition @ 10 uM” value is listed as 4.26%.

On to `O=C(CSc1nc2ccccc2o1)c1ccc(Cl)cc1`, for which the “% Inhibition @ 10 uM” value is given as 5.24%. As for `O=C(O)C1C2CCC(O2)C1C(=O)NCc1ccco1` (stereo not shown), the “% Inhibition @ 10 uM” value was found to be 1.87%. On to `CCOc1ccccc1NC(=O)C(C)Oc1ccc(C)cc1` (stereo not shown), for which the “% Inhibition @ 10 uM” value was -5.13%.

With `CCn1c(/C=C/c2ccc(F)cc2)nc2ccccc2c1=O`, the “% Inhibition @ 10 uM” value is listed as -6.05%.

As for `CCN1CCN(C(=O)c2ccc(NS(=O)(=O)c3cc(C)ccc3C)cc2)CC1`, the “% Inhibition @ 10 uM” value is -2.85%. With `Cc1ccc(-c2nc(CS(=O)(=O)CC(=O)N3CCc4ccccc4C3)c(C)o2)cc1`, the “% Inhibition @ 10 uM” value is given as -0.138%.

As for `C=CCSc1nc2ccccc2c(=O)n1-c1ccc(OC)cc1`, the “% Inhibition @ 10 uM” value is -1.26%.

`COc1ccc(NC(=O)CN2CCCCC2)cc1`: the “% Inhibition @ 10 uM” value is on record as -1.29%. The value for `CCOc1cccc2cc(-c3nc(-c4ccccc4)no3)c(=O)oc12` was -3.43%; that for `Cc1cc2nc3s/c(=C\c4cccc(Cl)c4Cl)c(=O)n3c2cc1C` was 3.61%; that for `COc1cccc(OC)c1C(=O)NCC1COc2ccccc2O1` (stereo not shown) was 4.35%. In the case of `Clc1ccc(-c2noc3ncnc(N4CCN(Cc5ccc6c(c5)OCO6)CC4)c23)cc1`, the “% Inhibition @ 10 uM” value is -3.95%. The value for `O=C(Nc1cccnc1)C1CCCN(c2ncnc3c2nc2n3CCCCC2)C1` (stereo not shown) was 0.244%.

`OC1(c2ccc(Cl)cc2)CCN(Cc2ccc(F)c(Br)c2)CC1`: the “% Inhibition @ 10 uM” value was -1.21%. For `Cn1ccc(/C=C2/CCC/C(=C\c3ccn(C)n3)C2=O)n1`, the “% Inhibition @ 10 uM” value is given as 0.64%. Regarding `Cc1cccc(NC(=O)c2c(C)oc3ncn(C)c(=O)c23)n1`, the “% Inhibition @ 10 uM” value is recorded as -2.41%. Take `C=CCOc1ccc(C2c3c(oc4cc(C)c(C)cc4c3=O)C(=O)N2CCCN2CCOCC2)cc1` (stereo not shown): the “% Inhibition @ 10 uM” value is reported as 2.31%.

With `Cc1ccc(C)c(CN2CCC(O)C2)c1` (stereo not shown), the “% Inhibition @ 10 uM” value is recorded as -0.0648%. Turning to `Cc1nc(S)c2c3c(sc2n1)CCCC3`, the “% Inhibition @ 10 uM” value is listed as 29%.

`CCCC(=O)Nc1ccc(C(=O)Nc2cc(OC)c(Cl)cc2OC)cc1`: the “% Inhibition @ 10 uM” value is given as -1.44%. On to `COc1ccc(CCN2C(=O)CC(Cc3ccc(C)cc3)C2=O)cc1OC` (stereo not shown), for which the “% Inhibition @ 10 uM” value came out at 1.68%. For the molecule `O=C(Nc1cccc2cccnc12)c1ccc(Br)o1`, the “% Inhibition @ 10 uM” value was found to be 1.39%.

On to `CCn1cc(C(=O)N2CCN(c3ccccn3)CC2)c2cc(OC)c(OC)cc2c1=O`, for which the “% Inhibition @ 10 uM” value is -7.33%. The value for `CCOc1ccc(NC(=O)C(C)Oc2ccccc2C)cc1` (stereo not shown) was 0.331%. On to `CCN(CC)c1ccc(NC(=O)COC)cc1`, for which the “% Inhibition @ 10 uM” value came out at 4.06%. `N=C(NOC(=O)c1ccccc1Cl)c1ncon1`: the “% Inhibition @ 10 uM” value is recorded as -2.26%.

On to `CC(=O)c1ccc(NC(=O)COc2ccccc2C)cc1`, for which the “% Inhibition @ 10 uM” value worked out at 7.66%.

Turning to `CCCCNC(=O)c1ccc(CS(=O)c2ccccc2C)o1` (stereo not shown), the “% Inhibition @ 10 uM” value was -4.96%. `O=C(CN1CCN(Cc2ccc(Cl)cc2)C1=O)NCCCSC1CCCCC1`: the “% Inhibition @ 10 uM” value is listed as -6.4%. Turning to `CCOC(=O)c1c(C)nc(C)c(C(=O)OCC)c1-c1ccccc1Cl`, the “% Inhibition @ 10 uM” value is recorded as 1.57%. Take `N#CC1=C(N)OC2=C(C(=O)CC(c3ccco3)C2)C1c1ccc(F)c(F)c1` (stereo not shown): the “% Inhibition @ 10 uM” value is on record as -1.06%. `Cc1ccc(OCC(=O)Nc2ccc(S(=O)(=O)N3CCN(C)CC3)cc2)c(C)c1`: the “% Inhibition @ 10 uM” value worked out at 1.83%. For `Cc1cc2oc3c(c(=O)c2cc1C)C(c1ccc(O)cc1)N(CCCN(C)C)C3=O` (stereo not shown), the “% Inhibition @ 10 uM” value is -4.78%. Regarding `NC(=O)c1cccc2c1[nH]c1ccccc12`, the “% Inhibition @ 10 uM” value turned out to be 1.08%. Take `COc1ccc(CNC(=O)c2nn3c(c2Cl)NC(c2cccs2)CC3C(F)(F)F)cc1` (stereo not shown): the “% Inhibition @ 10 uM” value is on record as -0.142%. For the molecule `Cc1ccccc1OCC(=O)N(C)c1ccc(NC(=O)C(F)(F)F)cc1`, the “% Inhibition @ 10 uM” value was -2.56%. In the case of `COc1ccc(NC(=O)c2cc(Cl)ccc2Cl)cc1[N+](=O)[O-]`, the “% Inhibition @ 10 uM” value is given as -3.77%. On to `CC1CCC(N2CCCN(C)CC2)CC1` (stereo not shown), for which the “% Inhibition @ 10 uM” value is -1.56%. Then `CCCOc1ccc(C2c3c(oc4cc(C)c(C)cc4c3=O)C(=O)N2c2nccs2)cc1` (stereo not shown), with 2.1%; and `COc1ccc2cc3c(N)nn(C(=O)c4ccc(Br)o4)c3nc2c1`, with 1.66%; and `CCOC(=O)C1CCCCN1Cc1cc(F)ccc1F` (stereo not shown), with 3.35%. As to `COCCNC(=S)N1CCc2cc(OC)c(OC)cc2C1COc1ccc2c(C)cc(=O)oc2c1` (stereo not shown), the “% Inhibition @ 10 uM” value stood at 2.17%. For the molecule `CCOC(=O)c1c(NC=O)sc(C)c1-c1ccc2cc(OC)ccc2c1`, the “% Inhibition @ 10 uM” value is -2.13%. As to `O=C(c1ccccc1F)N1CCC(c2nc(-c3ccc(S(=O)(=O)N4CCCC4)cc3)no2)CC1`, the “% Inhibition @ 10 uM” value is -3.08%. Turning to `CCc1ccc(N2CCN(S(=O)(=O)N(C)C)CC2)cc1`, the “% Inhibition @ 10 uM” value is 1.62%. Consider `CCOc1ccc(CNS(=O)(=O)c2ccc(-c3ccc(O)nn3)o2)cc1`, for which the “% Inhibition @ 10 uM” value came out at 4.27%. For the molecule `Cc1ccc(C2C(C(=O)c3ccc4c(c3)OCCO4)=C(O)C(=O)N2CCCn2ccnc2)o1` (stereo not shown), the “% Inhibition @ 10 uM” value is given as -4.06%.

Regarding `CCc1ccc(C2CC(c3ccccc3)=NN2S(C)(=O)=O)cc1` (stereo not shown), the “% Inhibition @ 10 uM” value is -10.2%. Consider `Cn1cc(CCC(=O)NCc2cccc(Cl)c2)c2ccccc21`, for which the “% Inhibition @ 10 uM” value was determined as 9.74%. `CCn1cc(CNC(=O)CSc2nc(-c3ccc(OC)c(OC)c3)cc(C(F)(F)F)n2)cn1`: the “% Inhibition @ 10 uM” value stood at 26.2%. With `COc1ccc(C2CC(C(F)(F)F)n3ncc(C(=O)N4CCN(Cc5ccccc5)CC4)c3N2)cc1` (stereo not shown), the “% Inhibition @ 10 uM” value is on record as 4.86%. As to `CCN(CC)CCNC(=O)NS(=O)(=O)c1ccccc1Cl`, the “% Inhibition @ 10 uM” value is recorded as 3.98%. For `CCOc1ccc(NC=C2C(=O)CC(c3ccc(Cl)cc3)CC2=O)cc1` (stereo not shown), the “% Inhibition @ 10 uM” value was -2.24%.

For the molecule `O=C(COc1ccccc1)NCCCn1ccnc1`, the “% Inhibition @ 10 uM” value amounted to 0.145%. Take `COc1ccc(NC(=O)C2=C(C)NC(=O)NC2c2ccc(C)cc2)cc1` (stereo not shown): the “% Inhibition @ 10 uM” value is recorded as -2.18%.

As to `COc1ccc(-n2c(CNCCc3ccc(C)cc3)nc3ccccc3c2=O)cc1`, the “% Inhibition @ 10 uM” value was 0.324%. As for `Cc1onc(-c2ccccc2)c1C1=N/C(=C\c2ccc(Br)cc2)C(=O)O1`, the “% Inhibition @ 10 uM” value was -4.13%. The value for `Cc1nc(=O)c(-c2ccccc2)c(C)n1CCCn1ccnc1` was 0.9%; that for `COc1cc(OC)cc(C(=O)Nc2nc(-c3nnn(-c4ccc(OC)c(Cl)c4)c3C)ns2)c1` was 6.03%; that for `CCc1ccccc1NC(=O)c1ccc(OC)c(OC)c1` was -4.11%. As for `C=C(C)CNC(=S)N1CCNCC1`, the “% Inhibition @ 10 uM” value is recorded as -0.902%. The value for `CC(C)OCCCNC(=O)c1ccc(CNS(=O)(=O)c2ccc(Br)cc2)cc1` was 0.208%; that for `CC(C)OCCCNC(=O)Cn1cc2c(n1)CCCCC2` was 1.59%. Then `CCCCNc1nc2c(S(=O)(=O)c3cc(C)ccc3C)nnn2c2ccsc12`, with -8.1%; and `COc1c(C(=O)Nc2ccc(Br)cn2)ccc2ccccc12`, with 0.0719%; and `Nc1ccc(Cl)cc1C(O)c1ccccc1` (stereo not shown), with 0.132%. Regarding `Cc1[nH]c2ccccc2c1CCNC(=O)/C(=C/c1ccccc1)NC(=O)c1ccccc1`, the “% Inhibition @ 10 uM” value came to 0.503%. Turning to `COC(=O)C1=C(C)N(C)C(=O)/C1=C\c1cccs1`, the “% Inhibition @ 10 uM” value is reported as -1.66%. The value for `CNC(=O)Cn1ncc2c(C)n(Cc3ccc(Cl)cc3)c(C)c2c1=O` was 1.22%; that for `COc1cccc(-c2ccc3c(N)c(C(=O)Nc4ccc(F)cc4)sc3n2)c1` was 0.0504%. Take `O=C1CNC(=S)N1c1ccccc1`: the “% Inhibition @ 10 uM” value is -2.88%.

Take `COCCNC(=S)N(CCc1c(C)[nH]c2ccc(F)cc12)Cc1ccccc1OC`: the “% Inhibition @ 10 uM” value turned out to be 1.5%. Consider `CCOCCCNC(=O)c1cc(Sc2ccc(OCC)cc2)nc2ccccc12`, for which the “% Inhibition @ 10 uM” value was -0.0542%.

Take `Brc1ccc(CN2CCN(Cc3ccccc3)CC2)o1`: the “% Inhibition @ 10 uM” value is recorded as -4.5%. The value for `CC(=O)/N=C(N)/N=c1\nc(C)c2ccc(C)cc2n1C(C)=O` was 3.27%; that for `Cn1c(=O)c2ncn(CC(=O)Nc3ccc(N4CCOCC4)c(Cl)c3)c2n(C)c1=O` was -13.5%.

Consider `O=C(NCCCN1CCOCC1)c1ccc(CS(=O)(=O)Cc2ccc(Cl)cc2)o1`, for which the “% Inhibition @ 10 uM” value is recorded as -1.34%. Regarding `CCCN1CCN(C(=O)Cn2c(-c3ccc(F)cc3)cc(C(=O)OCC)c2C)CC1`, the “% Inhibition @ 10 uM” value came out at 1.47%.

For `Cc1cc(O)c(C2=NCCSC(c3ccccc3)C2)c(=O)o1` (stereo not shown), the “% Inhibition @ 10 uM” value came out at 2.5%.

`CCC(Sc1nc2cccnc2[nH]1)C(=O)NCC1CCCO1` (stereo not shown): the “% Inhibition @ 10 uM” value was 5.38%.

Take `Cc1ccc(-c2nnc3c4cnn(-c5ccccc5)c4ncn23)cc1`: the “% Inhibition @ 10 uM” value is -0.386%. Then `CC1(C)CC(=O)C(C(c2ccccn2)c2c[nH]c3ccccc23)=C(O)C1` (stereo not shown), with -5.2%; and `COc1ccc(-c2noc(CN(C3CCCCC3)S(=O)(=O)c3ccc(F)cc3)n2)cc1`, with 2.14%.
